Results reported in article PMC8789800.

Biological target: carboxyfluoresceine (CF) labeled ORF45(16-40) peptide (Human herpesvirus 8 type P (KSHV))
Assay: fluorescence polarisation

Substance “nonphosphorylated ERK2 (from UniProt P28482 1-360) (enzyme)” has a Kd of 19.9 µM.
